# Several values for one entry are separate records, joined by “and”; a condition that tells them apart may be missing. Equal values may be shown once. This list was built around the results that the source calls inconclusive (neither active nor inactive); the mix of calls is not that of the screen. For part of these data: Potencies beside an inconclusive call are fits to weak or partial responses and may not hold up. Activity calls are given as the source filed them. Unless noted, calls follow the shape of the dose curve; as a rule, active = well fitted curve in the direction sought with a large enough effect in the repeat runs; inconclusive = weak or mixed curves; inactive = no such curve, though single readings can be large; an effect the other way counts as inactive or inconclusive.
# Legend:
# [1] = qHTS assay to identify small molecule antagonists of the constitutive androstane receptor (CAR) signaling pathway - cell viability counter screen (AID 1224837); also: nearly all actives have a fitted effect of over 45% in size; also: potency is read from the fitted curve at half-maximal effect
# Method in brief: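 Cytotoxicity counter-screen: CellTiter-Fluor fluorescence after 23 h compound exposure (15-point qHTS) in double-stable HepG2-CYP2B6-hCAR cells, with 50 nM CITCO added.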
# [2] = qHTS assay to identify small molecule agonists of the estrogen related receptor signaling pathway with the pleiotropic PPARgamma coactivator (PGC) from Tox21 10K library (AID 1224842); also: nearly all actives have a fitted effect of over 15% in size; also: potency is read from the fitted curve at half-maximal effect; as to activation: % is scaled to controls: 0 for no effect and ±100 for the full control effect
# Method in brief: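 Luminescence from One-Glo (30 min, room temperature) measured after PGC/ERR cells had 18 h at 37 C with pinned compound (23 nL in DMSO). Cells had been seeded at 2,000 per well and pre-incubated 6 h.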
# [3] = molecular target: Thyrotropin receptor (Homo sapiens) (UniProt P16473); assay: qHTS assay to identify small molecule agonists of the thyroid stimulating hormone receptor (TSHR) signaling pathway (AID 1224843; calls by dose curve; also: nearly all actives have a fitted effect of over 45% in size; also: potency is read from the fitted curve at half-maximal effect; as to activation: % is scaled to controls: 0 for no effect and ±100 for the full control effect); conditions: TSHR-HEK293 cells, cAMP HTRF, agonist mode, 30 min; activation: at 92.4 µM (top of the series) unless noted
# Method in brief: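 Agonist activity read as cAMP rise via d2/cryptate HTRF competition, 1 h room-temperature detection, in HEK293 cells expressing TSHR. Fifteen-point titrations, each run in triplicate, with a 30 min room-temperature incubation beforehand.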
# [4] = qHTS RealTime-Glo MT Cell Viability Assay in HepG2 cells - 24 hour (AID 1224867); also: potency is read from the fitted curve at half-maximal effect; nearly all actives have a fitted effect of over 50% in size
# Method in brief: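 Viability was tracked continuously by NanoLuc luminescence from prosubstrate reduced by living HepG2 cells, at successive time points over 40 h of compound exposure. Cells with reagent were preincubated 5 h at 37 °C before compound addition.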
# [5] = molecular target: Nuclear receptor subfamily 1 group I member 3 (Homo sapiens) (UniProt Q14994); assay: qHTS assay to identify small molecule agonists of the constitutive androstane receptor (CAR) signaling pathway (AID 1224839); also: potency is read from the fitted curve at half-maximal effect; nearly all actives have a fitted effect of over 15% in size
# Method in brief: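 In this screen, CAR-driven CYP2B6 promoter activity is measured by luminescence in HepG2-CYP2B6-hCAR cells after 24 h with test compounds and 0.75 uM PK11195 (final concentration).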
# [6] = qHTS assay to identify small molecule agonists of H2AX (AID 1224845; active = well fitted activation curve with a large enough effect in the signal ratio in the repeat runs, not every such curve was filed as active; inconclusive = weak or mixed curves; the % refers to the signal ratio; also: % is scaled to controls: 0 for no effect and ±100 for the full control effect); conditions: CHO-K1 phospho-H2AX Ser139 HTRF, 3 h; activation (H2AX phosphorylation): at 154 µM (top of the series) unless noted
# Method in brief: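 Phospho-H2AX Ser139 measured by HTRF (ex 320 nm; em 665 and 620 nm) after 24 hr antibody incubation. Compounds, 15 concentrations, 0.76% DMSO, were applied to CHO-K1 cells for 3hr at 37C before lysis.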
# [7] = qHTS assay to identify small molecule antagonists of the estrogen related receptor signaling pathway with the pleiotropic PPARgamma coactivator (PGC) from Tox21 10K library (AID 1224841; call rule not given here; also: actives are mostly falling curves and most rising ones were filed inactive; nearly all actives have a fitted effect of over 50% in size; also: potency is read from the fitted curve at half-maximal effect)
# Method in brief: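 Luminescence (One-Glo, 30 min at room temperature) after 18 h compound treatment at 37 C of PGC/ERR reporter cells plated at 2,000 cells/well and settled 6 h beforehand.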
# [8] = qHTS assay to identify small molecule antagonists of the estrogen related receptor (ERR) signaling pathway from Tox21 library (AID 1224848); also: potency is read from the fitted curve at half-maximal effect; nearly all actives have a fitted effect of over 50% in size
# Method in brief: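 Luciferase luminescence (ONE-Glo, 30 min room temperature) was the read-out. Cells of the NTP-supplied ERR line, 2,000 per well, were given 6 h at 37 C before compound addition in DMSO and 18 h exposure at 37 C.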
# [9] = qHTS assay to identify small molecule antagonists of the estrogen related receptor signaling pathway with the pleiotropic PPARgamma coactivator (PGC) from Tox21 10K library - cell viability counter screen (AID 1224840; active = well fitted cell-killing curve with a large enough effect in the repeat runs, not every such curve was filed as active; inconclusive = weak or mixed curves, or effect the other way; inactive = no such curve, though single readings can be large or run the other way; also: potency is read from the fitted curve at half-maximal effect; nearly all actives have a fitted effect of over 40% in size)
# Method in brief: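 Counter-screen for cytotoxicity: after 17.5 h compound exposure at 37 C, CellTiter-Fluor reagent added to PGC/ERR cells for 30 min and fluorescence read. Cells were seeded at 2,000 per well 6 h before dosing.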
# [10] = qHTS assay to identify small molecule agonists of the hypoxia (HIF-1) signaling pathway - cell viability counter screen (AID 1224844; calls by dose curve; also: potency is read from the fitted curve at half-maximal effect; nearly all actives have a fitted effect of over 50% in size)
# Method in brief: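 Cytotoxicity measured by CellTiter-Glo ATP luminescence in the wells also read for beta-lactamase signal. Cells were HRE-bla ME-180 (2,000/well, 0.5% dialyzed FBS), exposed to compounds for 17 h at 37C.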
# [11] = qHTS assay to identify small molecule agonists of the estrogen related receptor (ERR) signaling pathway from Tox21 library (AID 1224849; calls by dose curve; also: % is scaled to controls: 0 for no effect and ±100 for the full control effect; nearly all actives have a fitted effect of over 15% in size); conditions: ERR reporter cell line, ONE-Glo luciferase, 18 h
# Method in brief: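 Luminescent agonist read-out (One-Glo, 30-minute room-temperature incubation) following 18-hour compound treatment at 37 C of the ERR cell line, which had been plated 6 hours before dosing.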
# [12] = qHTS RealTime-Glo MT Cell Viability Assay in HEK293 cells - 32 hour (AID 1224868)
# Method in brief: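 Viability tracked continuously by luminescence as live cells reduce a prosubstrate for NanoLuc; HEK293 cells preincubated 5 h, compound-treated at 37 C, and read at 0, 8, 16, 24, 32 and 40 h.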
# [13] = qHTS assay to identify small molecule agonists of H2AX - cell viability counter screen (AID 1224847; calls by dose curve; also: top concentration of the series differs between compounds; % is scaled to controls: 0 for no effect and ±100 for the full control effect; nearly all actives have a fitted effect of over 30% in size)
# Method in brief: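 Read-out: CellTiter-Glo luminescence, 30 min RT. Cells: wild-type CHO-K1, 1000/well, 10% FBS, plated overnight at 37C. Treatment: 15 concentrations, 3 hr, 37C, 0.76% DMSO.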
# [14] = molecular target: Nuclear receptor subfamily 1 group I member 3 (Homo sapiens) (UniProt Q14994); assay: qHTS assay to identify small molecule antagonists of the constitutive androstane receptor (CAR) signaling pathway (AID 1224838);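 also: HepG2 cells stably expressing hCAR with CYP2B6 luciferase reporter stimulated by CITCO; nearly all actives have a fitted effect of over 40% in size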; also: potency is read from the fitted curve at half-maximal effect
# Method in brief: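 Antagonism measured as luciferase signal (ONE-Glo, 30 min, room temperature) in CAR-stimulated cells: HepG2-CYP2B6-hCAR double-stable line exposed 24 hr at 37 C to compound in a 15-point series plus 50 nM CITCO.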
# Tags tell the direction and shape of the fitted curve or compound fluorescence and quenching.
# UniProt P16473, sequence (P16473 whole entry, looked up): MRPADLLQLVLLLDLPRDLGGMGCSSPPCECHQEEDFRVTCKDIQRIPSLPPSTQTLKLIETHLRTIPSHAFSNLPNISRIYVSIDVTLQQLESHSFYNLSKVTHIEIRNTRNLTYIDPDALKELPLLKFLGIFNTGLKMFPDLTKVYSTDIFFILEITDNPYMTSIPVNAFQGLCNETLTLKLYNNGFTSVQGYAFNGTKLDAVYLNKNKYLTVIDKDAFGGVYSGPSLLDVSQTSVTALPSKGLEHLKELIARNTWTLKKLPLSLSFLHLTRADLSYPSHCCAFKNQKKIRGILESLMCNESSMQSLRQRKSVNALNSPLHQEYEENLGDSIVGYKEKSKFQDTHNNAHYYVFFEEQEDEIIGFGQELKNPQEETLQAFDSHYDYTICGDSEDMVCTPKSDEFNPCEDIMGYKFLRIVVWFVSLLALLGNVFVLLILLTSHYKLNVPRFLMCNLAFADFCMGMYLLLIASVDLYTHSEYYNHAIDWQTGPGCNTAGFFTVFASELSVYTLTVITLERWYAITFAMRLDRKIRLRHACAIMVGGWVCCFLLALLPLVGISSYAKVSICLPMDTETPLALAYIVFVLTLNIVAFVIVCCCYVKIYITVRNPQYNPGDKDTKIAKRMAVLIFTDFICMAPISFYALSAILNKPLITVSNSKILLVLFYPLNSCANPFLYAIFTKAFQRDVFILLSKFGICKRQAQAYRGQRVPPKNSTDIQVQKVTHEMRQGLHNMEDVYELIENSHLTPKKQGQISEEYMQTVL
# UniProt Q14994, sequence (Q14994 whole entry, looked up): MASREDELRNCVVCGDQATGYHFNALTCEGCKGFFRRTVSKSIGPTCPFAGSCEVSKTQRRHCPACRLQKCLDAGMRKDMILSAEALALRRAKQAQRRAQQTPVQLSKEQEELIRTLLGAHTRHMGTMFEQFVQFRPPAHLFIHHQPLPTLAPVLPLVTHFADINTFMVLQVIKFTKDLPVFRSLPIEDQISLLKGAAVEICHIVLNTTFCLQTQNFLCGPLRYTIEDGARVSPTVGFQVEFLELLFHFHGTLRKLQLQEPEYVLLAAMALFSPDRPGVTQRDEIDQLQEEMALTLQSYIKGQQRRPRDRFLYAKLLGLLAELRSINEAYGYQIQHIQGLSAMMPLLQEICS
compound,measurement,setting,value
OCc1cc(C(O)CNCCCCCCOCCCCc2ccccc2)ccc1O (stereo not given),Potency,[1],active: 13.3 µM
same,Potency,[2],inactive
same,Potency,[3],"inconclusive: 0.0596 µM [activator, full curve, poor fit]"
same,Potency,[4],"inconclusive: 23.9 µM [falling, single point]"
CCOC(=O)/C=C/C(=O)O,Potency,[1],inactive
same,Potency,[5],"inconclusive: 54.5 µM [activator, partial curve]"
same,Potency,[6],inactive
C[C@]12CCC(=O)C=C1CC[C@@H]1[C@@H]2CC[C@@]2(C)[C@H]1CC[C@]2(O)C(=O)CO,Potency,[1],inactive
same,Potency,[7],inactive
same,Potency,[8],"inconclusive: 21.1 µM [inhibitor, partial curve, poor fit]"
Oc1ccc(/C=C/c2cc(O)cc(O)c2)cc1,Potency,[1],"inconclusive: 69.2 µM [cytotoxic, partial curve, poor fit]"
same,Potency,[9],"inconclusive: 24.6 µM [cytotoxic, partial curve] and inconclusive: 19.3 µM [cytotoxic, full curve]"
same,Potency,[7],inactive
same,Potency,[2],active: 5.5 µM and active: 4.86 µM and active: 10.6 µM
same,activation,[3],inconclusive: 16.1%
same,Potency,[10],"inconclusive: 27.8 µM [cytotoxic, partial curve] and inconclusive: 21.9 µM [cytotoxic]"
same,"activity change, positive = activation",[11]; at 42.5 µM (top of the series),active: 132%
same,"activity change, positive = activation",[11]; at 92.4 µM (top of the series),active: 0.861% and active: 27.4%
same,Potency,[12],"inconclusive: 11 µM [cytotoxic, full curve] and inconclusive: 21.3 µM [cytotoxic, partial curve]"
CC(=O)Nc1ccc(N)cc1,Potency,[1],inactive
same,Potency,[3],inactive
same,Potency,[13],inactive
CC(C)CC(=O)O,Potency,[14],"inconclusive: 67.1 µM [inhibitor, single point]"
same,Potency,[5],"inconclusive: 67.1 µM [activator, partial curve, poor fit]"
same,Potency,[7],"inconclusive: 0.752 µM [falling, full curve]"
CC(=O)Nc1nnc(S(N)(=O)=O)s1,Potency,[14],"inconclusive: 29.8 µM [inhibitor, partial curve]"
CCN(CCO)CCCC(C)Nc1ccnc2cc(Cl)ccc12 (stereo not given),Potency,[14],inconclusive: 2.66 µM [inhibitor]
CC1(C)[C@H]2CC[C@]1(C)C(=O)C2,Potency,[14],inactive
O=C(O)c1ccc(S(=O)(=O)O)cc1C(=O)O,Potency,[14],inactive
same,Potency,[7],"inconclusive: 68.8 µM [falling, partial curve, poor fit]"
